# Experimental data from PubChem BioAssay (NCATS).
# Several values for one entry are separate records, joined by “and”; a condition that tells them apart may be missing. Equal entries are not always repeated. The shares of active, inactive and inconclusive entries below differ from those in the screen. For some assays here: Potencies beside an inconclusive call are fits to weak or partial responses and may not hold up. Activity calls are given as the source filed them. Unless noted, calls come from the whole dose curve; as a rule, active = well fitted curve in the direction sought with a large enough effect; inconclusive = small, poorly fitted or top-dose-only effect, or another doubt; inactive = no such curve, though single readings can be large; an effect the other way counts as inactive or inconclusive.
# Tests used:
# [1] = target: N-terminal Xaa-Pro-Lys N-methyltransferase 1 (Homo sapiens) (UniProt Q9BV86); test: Confirmatory qHTS for Inhibitors of N-terminal methyltransferase 1 (NTMT1): MTaseGlo Assay (AID 1645874); note: nearly all actives have a fitted effect of over 65% in size; note: potency is the fitted concentration of half-maximal effect;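 for activity change, negative = inhibition: luminescence from SAH made as NTMT1 methylates SPKRIA peptide using SAM; 0% = DMSO control and -100% = no-enzyme control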
# Chain of UniProt Q9BV86 (Q9BV86 whole entry, looked up): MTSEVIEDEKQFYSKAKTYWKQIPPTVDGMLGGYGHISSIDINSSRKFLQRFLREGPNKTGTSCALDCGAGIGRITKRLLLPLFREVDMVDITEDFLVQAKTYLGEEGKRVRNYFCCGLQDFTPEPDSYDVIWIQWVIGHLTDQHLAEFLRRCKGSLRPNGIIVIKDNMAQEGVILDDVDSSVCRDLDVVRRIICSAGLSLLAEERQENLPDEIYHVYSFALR
# How it was run: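 NTMT1 (125 nM) preincubated 15 min with compound and 100 uM SAM, then 1 uM SPKRIA peptide added for 30 min at room temperature. SAH detected by MTase-Glo luminescence; normalized to no-enzyme and DMSO controls, fitted to 4-parameter Hill.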
# [2] = Primary qHTS for inhibitors of nuclear receptor binding SET domain protein 2 (NSD2) in an isogenic RCH-ACV NSD2 p.E1099K mutant (9B) (AID 1645876); note: potency is the fitted concentration of half-maximal effect; nearly all actives have a fitted effect of over 70% in size
# [3] = Primary qHTS for inhibitors of nuclear receptor binding SET domain protein 2 (NSD2) in an RCH-ACV wild type WT cells (2C) (AID 1645877); settings: activity change, negative = cell killing: at 44.9 µM (top of the series) unless noted; note: nearly all actives have a fitted effect of over 70% in size; note: potency is the fitted concentration of half-maximal effect; for activity change, negative = cell killing: % is set by controls: 0 for no effect and ±100 for the full control effect
# [4] = target: Cytochrome P450 2C9 (Homo sapiens) (UniProt P11712); test: Cytochrome P450 family 2 subfamily C member 9 (CYP2C9) small molecule antagonists: luciferase biochemical (cell-free) qHTS assay (AID 1645842; active = well fitted curve in the direction sought with a large enough effect in the repeat runs; inconclusive = weak or mixed curves; inactive = no such curve, though single readings can be large; an effect the other way counts as inactive or inconclusive; note: nearly all actives have a fitted effect of over 55% in size; note: potency is the fitted concentration of half-maximal effect; for activity change, negative = inhibition: % is set by controls: 0 for no effect and ±100 for the full control effect)
# Chain of UniProt P11712 (P11712 whole entry, looked up): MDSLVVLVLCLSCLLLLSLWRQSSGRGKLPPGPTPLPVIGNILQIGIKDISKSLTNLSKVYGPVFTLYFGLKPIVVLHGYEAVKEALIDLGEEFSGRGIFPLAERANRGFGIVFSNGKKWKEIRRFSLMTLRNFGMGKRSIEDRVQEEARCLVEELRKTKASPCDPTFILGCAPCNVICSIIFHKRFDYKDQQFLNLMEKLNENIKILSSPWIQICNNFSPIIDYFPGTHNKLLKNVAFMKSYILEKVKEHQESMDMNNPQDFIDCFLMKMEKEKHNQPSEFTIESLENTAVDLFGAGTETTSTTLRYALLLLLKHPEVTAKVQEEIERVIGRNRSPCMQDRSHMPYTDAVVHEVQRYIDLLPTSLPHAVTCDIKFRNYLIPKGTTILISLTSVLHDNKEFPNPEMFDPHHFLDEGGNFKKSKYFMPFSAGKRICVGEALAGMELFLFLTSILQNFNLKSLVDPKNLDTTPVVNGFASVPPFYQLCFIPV
# How it was run: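 Luminescence, after 20 min with luciferin detection reagent, reflected CYP2C9 turnover during a 1 h NADPH-driven reaction at 37C. Enzyme-substrate mix contained 0.4% bovine serum albumin and was preincubated with compound 10 min at room temperature.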
# [5] = target: Papain (Carica papaya) (UniProt P00784); test: Primary qHTS assay for inhibitors of the protease papain (AID 1645873);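 note: papain turnover of Z-FR-AMC read as the AMC fluorescence gain over 10 min; % is set by controls: 0 for no effect and ±100 for the full control effect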
# Chain of UniProt P00784 (P00784 whole entry, looked up): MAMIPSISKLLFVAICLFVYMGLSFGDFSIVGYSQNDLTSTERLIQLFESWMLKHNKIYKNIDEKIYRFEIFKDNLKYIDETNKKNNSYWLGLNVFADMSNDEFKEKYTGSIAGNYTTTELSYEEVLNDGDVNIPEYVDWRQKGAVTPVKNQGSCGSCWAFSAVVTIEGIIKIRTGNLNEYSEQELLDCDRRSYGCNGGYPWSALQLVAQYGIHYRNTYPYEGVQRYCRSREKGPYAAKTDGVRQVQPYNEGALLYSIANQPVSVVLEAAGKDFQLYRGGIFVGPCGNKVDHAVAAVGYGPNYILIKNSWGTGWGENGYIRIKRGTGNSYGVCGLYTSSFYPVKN
# [6] = target: Cytochrome P450 3A4 (Homo sapiens) (UniProt P08684); test: Cytochrome P450 family 3 subfamily A member 4 (CYP3A4) small molecule antagonists: luciferase qHTS assay (AID 1645841; active = well fitted curve in the direction sought with a large enough effect in the repeat runs; inconclusive = weak or mixed curves; inactive = no such curve, though single readings can be large; an effect the other way counts as inactive or inconclusive; note: nearly all actives have a fitted effect of over 45% in size; note: potency is the fitted concentration of half-maximal effect)
# Chain of UniProt P08684 (P08684 whole entry, looked up): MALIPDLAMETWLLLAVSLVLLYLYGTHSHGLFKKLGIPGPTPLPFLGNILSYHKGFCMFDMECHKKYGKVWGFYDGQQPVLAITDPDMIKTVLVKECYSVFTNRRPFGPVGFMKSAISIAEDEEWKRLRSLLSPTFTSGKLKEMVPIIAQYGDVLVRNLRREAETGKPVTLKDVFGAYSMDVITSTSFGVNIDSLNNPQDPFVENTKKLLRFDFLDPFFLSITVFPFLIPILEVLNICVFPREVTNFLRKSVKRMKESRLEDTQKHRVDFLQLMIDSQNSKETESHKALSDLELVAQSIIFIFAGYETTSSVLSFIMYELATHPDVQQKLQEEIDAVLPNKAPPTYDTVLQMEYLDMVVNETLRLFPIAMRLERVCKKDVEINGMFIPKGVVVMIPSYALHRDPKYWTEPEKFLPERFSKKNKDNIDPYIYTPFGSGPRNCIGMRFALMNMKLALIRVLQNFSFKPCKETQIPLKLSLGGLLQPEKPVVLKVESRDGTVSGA
# How it was run: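 P450-Glo CYP3A4 enzyme with proluciferin substrate was preincubated with DMSO-dissolved compounds for 10 min at room temperature. NADPH regeneration solution started a 1 h reaction. Detection reagent stopped it, and luminescence was read after 20 min.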
# [7] = NCATS anti-infectives library activity on HEK293 viability as a counter-qHTS vs the C. elegans viability qHTS (AID 1745854); note: potency is the fitted concentration of half-maximal effect
# How it was run: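 HEK293 cells, 1500 per well, exposed 24 hr at 37C in 5% CO2 to compounds in a 1:5 titration, up to 41.7 uM final. Viability read as CellTiter-Glo luminescence after 10 min at room temperature.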
# [8] = target: Cytochrome P450 2D6 (Homo sapiens) (UniProt P10635); test: Cytochrome P450 family 2 subfamily D member 6 (CYP2D6) small molecule antagonists: luciferase biochemical (cell-free) qHTS assay (AID 1645840; active = well fitted curve in the direction sought with a large enough effect in the repeat runs; inconclusive = weak or mixed curves; inactive = no such curve, though single readings can be large; an effect the other way counts as inactive or inconclusive; note: nearly all actives have a fitted effect of over 55% in size; note: potency is the fitted concentration of half-maximal effect; for activity change, negative = inhibition: % is set by controls: 0 for no effect and ±100 for the full control effect)
# Chain of UniProt P10635 (P10635 whole entry, looked up): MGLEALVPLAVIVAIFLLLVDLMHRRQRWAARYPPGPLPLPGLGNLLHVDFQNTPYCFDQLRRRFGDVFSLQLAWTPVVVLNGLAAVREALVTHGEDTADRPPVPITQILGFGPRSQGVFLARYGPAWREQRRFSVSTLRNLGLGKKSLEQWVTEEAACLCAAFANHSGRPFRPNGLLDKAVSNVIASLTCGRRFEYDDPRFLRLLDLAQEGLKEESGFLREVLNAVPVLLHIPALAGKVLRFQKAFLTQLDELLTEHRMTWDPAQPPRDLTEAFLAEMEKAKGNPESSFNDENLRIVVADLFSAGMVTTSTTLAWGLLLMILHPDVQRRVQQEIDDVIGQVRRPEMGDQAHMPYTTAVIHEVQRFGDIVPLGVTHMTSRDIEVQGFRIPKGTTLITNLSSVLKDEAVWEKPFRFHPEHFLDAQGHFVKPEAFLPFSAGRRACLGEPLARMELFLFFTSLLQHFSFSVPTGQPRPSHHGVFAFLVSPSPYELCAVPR
# How it was run: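 P450-Glo luminescent screen: recombinant CYP2D6 enzyme–proluciferin substrate mix preincubated with compound 10 min at room temperature, then NADPH regeneration added for 1 h at room temperature. Detection reagent added for 20 min; luciferin light read as relative luminescence units.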
# [9] = NCATS anti-infectives library activity on the primary C. elegans qHTS viability assay (AID 1745855; calls by dose curve)
# How it was run: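 Viability is taken from GFP fluorescence of PE254-GFP-FLuc C. elegans imaged by laser cytometry over 7 days. Ten L1 worms per well grow at 21 °C on TOP10 E. coli capsules with titrated compound; levamisole marks toxicity.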
# Tags give direction and shape of the fitted curve.
compound,measurement,setting,value
C[C@]12C[C@H](O)[C@H]3[C@@H](CCC4=CC(=O)CC[C@@]43C)[C@@H]1CC[C@@H]2C(=O)CO,Potency,[1],"inconclusive: 30.8 µM [inhibitor, partial curve]"
same,Potency,[2],"inconclusive: 29.9 µM [inhibitor, partial curve, poor fit]"
same,Potency,[3],"inconclusive: 11.9 µM [inhibitor, partial curve, poor fit]"
O=C(NCC1CN(c2ccc(N3CCOCC3=O)cc2)C(=O)O1)c1ccc(Cl)s1 (centres undefined),Potency,[2],"inconclusive: 26.6 µM [inhibitor, single point] and inconclusive: 25.8 µM [inhibitor, single point]"
CC(C)c1cnn2c(NCc3ccccc3)cc(N[C@@H](CO)[C@H](O)CO)nc12,Potency,[4],active: 3.79 µM
same,Potency,[2],active: 515 nM and active: 186 nM
same,Potency,[3],active: 515 nM and active: 166 nM
Nc1ccc(C(=O)Nc2ccccc2N)cc1,Potency,[4],inactive
same,Potency,[3],active: 8.41 µM
COc1ccc2c3n(c(=NC(=O)c4cccnc4)nc2c1OC)CCN3,Potency,[2],active: 0.166 µM
CCOC(=O)[C@H](CCc1ccccc1)N[C@@H](C)C(=O)N1[C@H](C(=O)O)C[C@H]2CCCC[C@@H]21,Potency,[5],inactive
COc1ccc(-c2cc3c(C)nc(N)nc3n(C3CCC(OCCO)CC3)c2=O)cn1 (centres undefined),Potency,[4],active: 5.35 µM and active: 4.25 µM
same,Potency,[1],inactive
same,Potency,[2],active: 20.5 nM and active: 41.7 nM
C#Cc1cccc(Nc2ncnc3cc(OC)c(OCCCCCCC(=O)NO)cc23)c1,Potency,[1],active: 31.2 µM
Clc1cccc(-c2nnnn2Cc2cccnc2)c1Cl,Potency,[4],"inconclusive: 21.3 µM [inhibitor, partial curve]"
Cc1cccc(C)c1NC(=O)CN1CCN(CCCC(c2ccc(F)cc2)c2ccc(F)cc2)CC1,Potency,[4],active: 19.5 µM
Nc1ncn([C@@H]2O[C@H](CO)[C@@H](O)[C@H]2O)c(=O)n1,Potency,[6],inactive
same,Potency,[2],"inconclusive: 33.5 µM [inhibitor, single point]"
same,Potency,[3],"inconclusive: 33.5 µM [inhibitor, single point]"
same,Potency,[7],"inconclusive: 15.8 µM [cytotoxic, single point]"
CCn1cc(C(=O)O)c(=O)c2cnc(N3CCCC3)nc21,"activity change, negative = inhibition",[4],inactive: -2.8% [at 11.5 µM]
same,"activity change, negative = cell killing",[3],inactive: -0.361% [at 9.23 µM]
CC1(C)O[C@@H]2[C@@H](CO[C@@]3(COS(N)(=O)=O)OC(C)(C)O[C@@H]23)O1,Potency,[8],inactive
same,Potency,[9],inactive
CCCCC(=O)O[C@]1(C(=O)CO)CC[C@H]2[C@@H]3CCC4=CC(=O)CC[C@]4(C)[C@H]3[C@@H](O)C[C@@]21C,Potency,[6],"inconclusive: 11 µM [falling, partial curve]"
same,Potency,[4],"inconclusive: 24.5 µM [inhibitor, single point]"
same,Potency,[2],"inconclusive: 29.9 µM [inhibitor, single point]"
same,Potency,[3],active: 0.106 µM
CC(C(=O)O)c1ccc(CC2CCCC2=O)cc1 (centres undefined),Potency,[6],inactive
same,Potency,[5],inactive
same,Potency,[3],inactive
CCOC(=O)N1CCN([N+]([O-])=NOc2ccc([N+](=O)[O-])cc2C#N)CC1,Potency,[4],"inconclusive: 21.3 µM [inhibitor, single point]"
C=C1C[C@H]2[C@@H]3C=C(C)C4=CC(=O)CC[C@]4(C)[C@H]3CC[C@]2(C)[C@@]1(OC(C)=O)C(C)=O,Potency,[4],"inconclusive: 17.4 µM [inhibitor, partial curve]"
CCCN1CCCC[C@H]1C(=O)Nc1c(C)cccc1C,Potency,[8],active: 4.9 µM
same,Potency,[3],inactive
CC(=O)Oc1cccc(C)c1,Potency,[4],inactive
CCN(Cc1ccncc1)C(=O)C(CO)c1ccccc1 (centres undefined),Potency,[5],inactive
COc1c2occc2c(OC)c2c(=O)cc(C)oc12,Potency,[4],active: 11 µM
Nc1ccn([C@@H]2O[C@H](CO)[C@@H](O)C2O)c(=O)n1 (some centres undefined),Potency,[4],"inconclusive: 23.9 µM [inhibitor, partial curve, poor fit]"
C[C@@H](Oc1cc(-c2cnn(C3CCNCC3)c2)cnc1N)c1c(Cl)ccc(F)c1Cl,Potency,[4],"inconclusive: 7.56 µM [inhibitor, single point]"
Nc1ccc(C(=O)Nc2cccc(-c3nc(N4CCOCC4)c4oc5ncccc5c4n3)c2)cn1,Potency,[1],"inconclusive: 17.5 µM [inhibitor, full curve, poor fit]"
Cc1nnc(NS(=O)(=O)c2ccc(N)cc2)s1,Potency,[4],"inconclusive: 16.9 µM [inhibitor, partial curve]"
same,Potency,[3],inactive
